From a collection of fitness landscapes (doi:10.1016/j.celrep.2020.107928)
Whole data set: some 81,000 sequences, median “one-hybrid fitness for binding parS DNA” near -0.17, cut for the highest 2% near 0.51. This is one part of the list.

B1: Caulobacter ParB omega fusion; a variant is named by its letters at X, in order, B8GW30 (parent)
chain: MESVVVGEPGMSEGRRGLGRGLSALLGEVDAAPAQAPGEQLGGSREAPIEILQRNPDQPRRTFREEDLEDLSNSIREKGVLQPILVRPSPDTAGEYQIVAGERAWRAAQRAGLKTVPIMVRELDDLAVLEIGIIENVQRADLNVLEEALSYKVLMEKFERTQENIAQTIGKSXSHVANXMRLLXLPDEVQSYLVSGELTAXHARAIAAAADPVALAKQIIEGGLSVRETEALARKAPNLSAGKSKGGRPPRVKDTDTQALESDLSSVLGLDVSIDHRGSTGTLTITYATLEQLDDLCNRLTRGI

Variants of: B1
Assay: one-hybrid fitness for binding parS DNA (scaled: cognate 1, non-cognate 0); higher = stronger binding
Conditions: with parS DNA site
Method in brief: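 In E. coli USO, a HIS3 reporter with its site placed 19 bp from the promoter was used to select Caulobacter ParB variants randomised at four specificity codons. Growth lasted 48 hours at 37°C on histidine-free M9 containing 0.1 mM IPTG and 5 mM 3-AT. Fitness was taken as the log change in variant-to-wild-type read ratio from Illumina sequencing of pre- and post-selection plasmids, rescaled between the non-cognate and cognate sites.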

| Variant | one-hybrid fitness for binding parS DNA |
| --- | --- |
| KGDD | ≤ 0.2 |
| PEDS | ≤ 0.2 |
| RCMK | ≤ 0.2 |
| QPEN | ≤ 0.2 |
| IEQT | ≤ 0.2 |
| RHNE | ≤ 0.2 |
| LGIL | ≤ 0.2 |
| RQFG | 0.917 |
| QFML | ≤ 0.2 |
| STFR | ≤ 0.2 |
| GNSL | ≤ 0.2 |
| HKDW | ≤ 0.2 |
| PPTN | ≤ 0.2 |
| YHPT | ≤ 0.2 |
| EQRG | ≤ 0.2 |
| YTSL | ≤ 0.2 |
| CYCT | ≤ 0.2 |
| CTGM | ≤ 0.2 |
| ASKL | ≤ 0.2 |
| WWDR | ≤ 0.2 |
| MFTM | ≤ 0.2 |
| HSER | ≤ 0.2 |
| FDTD | ≤ 0.2 |
| HFAC | ≤ 0.2 |
| YPQL | ≤ 0.2 |

| Variant | one-hybrid fitness for binding parS DNA |
| --- | --- |
| SSCQ | ≤ 0.2 |
| VYQL | ≤ 0.2 |
| QKHD | ≤ 0.2 |
| MNRW | ≤ 0.2 |
| NTNF | ≤ 0.2 |
| WKSS | ≤ 0.2 |
| NVEV | ≤ 0.2 |
| VMGT | ≤ 0.2 |
| QLVM | ≤ 0.2 |
| SSVY | ≤ 0.2 |
| VQTL | ≤ 0.2 |
| VDIV | ≤ 0.2 |
| QYDK | ≤ 0.2 |
| RYWK | ≤ 0.2 |
| VRSD | ≤ 0.2 |
| RGVP | ≤ 0.2 |
| ELNT | ≤ 0.2 |
| CCCT | ≤ 0.2 |
| QTSC | ≤ 0.2 |
| RQMP | ≤ 0.2 |
| HGWS | ≤ 0.2 |
| GATL | ≤ 0.2 |
| TRKQ | ≤ 0.2 |
| PRGQ | ≤ 0.2 |
| TSIY | ≤ 0.2 |

| Variant | one-hybrid fitness for binding parS DNA |
| --- | --- |
| IATN | ≤ 0.2 |
| YPTH | ≤ 0.2 |
| RFIW | ≤ 0.2 |
| TWQE | ≤ 0.2 |
| YPTM | ≤ 0.2 |
| RTQR | ≤ 0.2 |
| PYFG | ≤ 0.2 |
| NGCR | ≤ 0.2 |
| KILR | ≤ 0.2 |
| RRAH | ≤ 0.2 |
| GMKY | ≤ 0.2 |
| PYNV | ≤ 0.2 |
| WDVI | ≤ 0.2 |
| WYVG | ≤ 0.2 |
| QTWL | ≤ 0.2 |
| ASPW | ≤ 0.2 |
| PMAC | ≤ 0.2 |
| ACTS | ≤ 0.2 |
| PINS | ≤ 0.2 |
| QEES | ≤ 0.2 |
| RNQF | ≤ 0.2 |
| YGGC | ≤ 0.2 |
| GGII | ≤ 0.2 |
| QVPV | ≤ 0.2 |
| AFIL | ≤ 0.2 |

| Variant | one-hybrid fitness for binding parS DNA |
| --- | --- |
| LCKL | ≤ 0.2 |
| HQLI | ≤ 0.2 |
| GCAV | ≤ 0.2 |
| QSVY | ≤ 0.2 |
| MEKG | ≤ 0.2 |
| RRNV | ≤ 0.2 |
| GIEG | ≤ 0.2 |
| HKTS | ≤ 0.2 |
| DMHA | ≤ 0.2 |
| YSSM | ≤ 0.2 |
| HCCR | ≤ 0.2 |
| HEIR | ≤ 0.2 |
| RRDE | ≤ 0.2 |
| GAYD | ≤ 0.2 |
| VSNE | ≤ 0.2 |
| SACL | ≤ 0.2 |
| FFKL | ≤ 0.2 |
| PPIS | ≤ 0.2 |
| HSCG | ≤ 0.2 |
| ITLN | ≤ 0.2 |
| LLFT | ≤ 0.2 |
| FSVM | ≤ 0.2 |
| ETYC | ≤ 0.2 |
| LNNY | ≤ 0.2 |
| ILHG | ≤ 0.2 |

| Variant | one-hybrid fitness for binding parS DNA |
| --- | --- |
| TPDG | ≤ 0.2 |
| NNST | ≤ 0.2 |
| VLTD | ≤ 0.2 |
| SANA | ≤ 0.2 |
| VHTQ | ≤ 0.2 |
| YRWL | ≤ 0.2 |
| QGQF | ≤ 0.2 |
| YPNT | ≤ 0.2 |
| TYAT | ≤ 0.2 |
| ITHC | ≤ 0.2 |
| FFHR | ≤ 0.2 |
| MSQS | ≤ 0.2 |
| GNQA | ≤ 0.2 |
| VYSS | ≤ 0.2 |
| VEQS | ≤ 0.2 |
| LGWV | ≤ 0.2 |
| ERHP | ≤ 0.2 |
| DLYC | ≤ 0.2 |
| PDET | ≤ 0.2 |
| FVFS | ≤ 0.2 |
| QDGW | ≤ 0.2 |
| RYSG | 0.984 |
| LGQF | ≤ 0.2 |
| FVDG | ≤ 0.2 |
| SFYC | ≤ 0.2 |

| Variant | one-hybrid fitness for binding parS DNA |
| --- | --- |
| FCTF | ≤ 0.2 |
| FEGA | ≤ 0.2 |
| LDVM | ≤ 0.2 |
| KKLM | ≤ 0.2 |
| FLGE | ≤ 0.2 |
| HICV | ≤ 0.2 |
| KENL | ≤ 0.2 |
| VSSN | ≤ 0.2 |
| HLMF | ≤ 0.2 |
| VSER | ≤ 0.2 |
| EQMT | ≤ 0.2 |
| QRHS | ≤ 0.2 |
| QREG | ≤ 0.2 |
| QQYG | ≤ 0.2 |
| MWAV | ≤ 0.2 |
| RTFY | 0.479 |
| RFRY | 0.533 |
| QQNL | ≤ 0.2 |
| CTEC | ≤ 0.2 |
| AEYV | ≤ 0.2 |
| VPEI | ≤ 0.2 |
| HNEF | ≤ 0.2 |
| LAYM | ≤ 0.2 |
| LQPL | ≤ 0.2 |
| PNGR | ≤ 0.2 |

| Variant | one-hybrid fitness for binding parS DNA |
| --- | --- |
| TKGR | ≤ 0.2 |
| INDS | ≤ 0.2 |
| LHTL | ≤ 0.2 |
| KTEG | ≤ 0.2 |
| RIYG | 1.03 |
| FWLS | ≤ 0.2 |
| CAIT | ≤ 0.2 |
| YDPS | ≤ 0.2 |
| RDFM | ≤ 0.2 |
| DPAY | ≤ 0.2 |
| AFDS | ≤ 0.2 |
| AFMS | ≤ 0.2 |
| MNVM | ≤ 0.2 |
| QRNE | ≤ 0.2 |
| QPMS | ≤ 0.2 |
| AVRD | ≤ 0.2 |
| MHGS | ≤ 0.2 |
| KALC | ≤ 0.2 |
| RGHM | ≤ 0.2 |
| DSVG | ≤ 0.2 |
| GDYC | ≤ 0.2 |
| PMFI | ≤ 0.2 |
| SDKM | ≤ 0.2 |
| ALIC | ≤ 0.2 |
| WHTA | ≤ 0.2 |

| Variant | one-hybrid fitness for binding parS DNA |
| --- | --- |
| DEQR | ≤ 0.2 |
| QRSG | ≤ 0.2 |
| SYTE | ≤ 0.2 |
| RMEE | ≤ 0.2 |
| DTTA | ≤ 0.2 |
| YQSR | ≤ 0.2 |
| LTPP | ≤ 0.2 |
| NEMC | ≤ 0.2 |
| NRED | ≤ 0.2 |
| ARVH | ≤ 0.2 |
| CQVA | ≤ 0.2 |
| QRHV | ≤ 0.2 |
| GYTH | ≤ 0.2 |
| QTAD | ≤ 0.2 |
| TNTM | ≤ 0.2 |
| DATS | ≤ 0.2 |
| CHYK | ≤ 0.2 |
| TQNH | ≤ 0.2 |
| MTEG | ≤ 0.2 |
| SAWQ | ≤ 0.2 |
